# The list shows a part of the results. At the low end of the ranking the order means little.
# Target: T1, GST-Rok (full length) (UniProt O34857)
# T1 sequence: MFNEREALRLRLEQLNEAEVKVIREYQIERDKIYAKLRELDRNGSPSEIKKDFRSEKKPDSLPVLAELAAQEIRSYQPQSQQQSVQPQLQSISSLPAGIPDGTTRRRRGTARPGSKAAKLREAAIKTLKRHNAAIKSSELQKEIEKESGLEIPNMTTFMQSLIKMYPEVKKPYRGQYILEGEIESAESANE
# Assay: protein binding microarray;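 further: rank score from −0.5 (least bound) to 0.5 (best bound)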
# Conditions: Rok is a gene silencer of Bacillus subtilis; high values mean tight binding; most listed sequences are background and not binding sites; double strand, one strand shown
row,Sequence,binding signal
1,GCATGCAC,-0.0775 E-score
2,CGCAGAAG,-0.158 E-score
3,CGAGGGAA,-0.16 E-score
4,GCAGCTCC,-0.203 E-score
5,AGCAGTCG,-0.127 E-score
6,AGTTCAAG,-0.0154 E-score
7,CCGGCTGA,-0.0957 E-score
8,CCGCACAG,-0.299 E-score
9,ATAGGTGA,0.0572 E-score
10,GGAAATCC,-0.213 E-score
11,TAGTTTGA,0.347 E-score
12,GTGCTCGA,-0.205 E-score
13,ATTAGCAG,0.186 E-score
14,CATACGCA,0.0888 E-score
15,AGTCTACA,0.223 E-score
16,AGGGCACT,-0.148 E-score
17,ACGCCAGA,-0.147 E-score
18,AAATCCTT,-0.0579 E-score
19,CGATTAAG,0.0852 E-score
20,AAGAACTC,0.0264 E-score
21,AGAGTGAA,-0.0866 E-score
22,CTCAACGC,-0.055 E-score
23,GCTGGTCC,-0.17 E-score
24,ACGGTTGG,-0.0465 E-score
25,AAGAGAAA,-0.0791 E-score

row,Sequence,binding signal
1,GATGCAAA,-0.0054 E-score
2,GTATGCCA,0.0606 E-score
3,CGTTGTAA,0.164 E-score
4,AAACTCAC,0.0104 E-score
5,AATGACAT,0.144 E-score
6,AATCGCAC,-0.0941 E-score
7,TCTATACA,0.216 E-score
8,CAACTCGA,0.159 E-score
9,GGATTACC,-0.101 E-score
10,CATCTAAC,0.031 E-score
11,GGTAGTAA,0.335 E-score
12,CAGTTCAG,-0.197 E-score
13,GTCCGCAC,-0.129 E-score
14,AAAGTGAG,-0.0263 E-score
15,ACAGCATG,0.0491 E-score
16,GGACAGAC,-0.252 E-score
17,AGGTACAT,0.182 E-score
18,CTAGCTAC,0.198 E-score
19,AGAGCTGC,-0.0428 E-score
20,CCATCACG,-0.206 E-score
21,CACTGTCC,-0.117 E-score
22,TGGAACAA,-0.0437 E-score
23,GATTTGAA,0.0393 E-score
24,GAGCTACC,0.0563 E-score
25,TCCGCCAA,-0.313 E-score

row,Sequence,binding signal
1,TCAAAAAA,-0.0457 E-score
2,GACCACTA,0.0333 E-score
3,CGTTATAA,0.173 E-score
4,CCAGGTGA,-0.179 E-score
5,AACTTCCT,-0.128 E-score
6,CGGCCAAA,-0.00525 E-score
7,AACAGATT,0.0218 E-score
8,CTATGAGA,0.0936 E-score
9,CCTCAATA,-0.104 E-score
10,GACGACCC,-0.304 E-score
11,GTGCTCTA,-0.155 E-score
12,ACAATCCA,-0.0266 E-score
13,TACCACCA,0.161 E-score
14,AGTAGCCC,-0.206 E-score
15,GTAATGCA,0.0743 E-score
16,CCTTCATA,-0.00231 E-score
17,GTCTCTCA,-0.17 E-score
18,CTCTTACA,-0.0257 E-score
19,AGTTTTAA,0.165 E-score
20,GCGCCTCA,-0.273 E-score
21,CTTTAGCA,0.00034 E-score
22,AGCGCCCC,-0.293 E-score
23,GCGGTCCC,-0.343 E-score
24,GGAAGAAA,0.0818 E-score
25,ACGAGAGC,-0.0368 E-score

row,Sequence,binding signal
1,TTCTTCAA,-0.0756 E-score
2,ACCTCCGT,-0.202 E-score
3,CGACAGGA,-0.211 E-score
4,TAAAGGTA,0.156 E-score
5,CCCGCTAG,-0.127 E-score
6,CGCGTTAC,0.0686 E-score
7,AGCCCTAC,-0.0981 E-score
8,GCATCTGA,-0.151 E-score
9,ACTTAAAC,0.00251 E-score
10,CGCAACGA,-0.0427 E-score
11,CTTGAACC,-0.226 E-score
12,AGATAACG,0.225 E-score
13,TAAGTAGA,0.305 E-score
14,CCCGCGCG,-0.273 E-score
15,TCCAAAAA,0.0831 E-score
16,CTCGACCA,-0.0329 E-score
17,CCTATGCA,-0.0718 E-score
18,ACACCACC,0.0301 E-score
19,ACGCAAAT,0.0117 E-score
20,AATCAAGG,0.119 E-score
21,CCCAAGCC,-0.364 E-score
22,ACTTGGTC,-0.00297 E-score
23,TAACCGTA,0.213 E-score
24,AAGGCGAC,-0.246 E-score
25,GAAAGATC,-0.0394 E-score

row,Sequence,binding signal
1,ATGGCCAT,0.00684 E-score
2,GCGGTCCA,-0.151 E-score
3,CTTTTATC,0.118 E-score
4,ATACTGGG,0.108 E-score
5,AAGGCCAT,-0.205 E-score
6,GGGAGGTA,-0.0191 E-score
7,CTGTATTA,0.235 E-score
8,CAAGACTA,0.156 E-score
9,GATAACTA,0.222 E-score
10,ACATGAAA,0.0981 E-score
11,AGATCAAA,0.122 E-score
12,AACTACGG,0.204 E-score
13,ACCACAAA,0.0984 E-score
14,CATGTTAC,0.198 E-score
15,AACGCTCC,-0.107 E-score
16,ACCATTAC,0.253 E-score
17,CTTGACCC,-0.171 E-score
18,ATTTAAGG,0.0771 E-score
19,ACAGTATC,0.217 E-score
20,AATCTCTC,-0.109 E-score
21,TGATGAAA,0.0174 E-score
22,CTAGGTCC,-0.139 E-score
23,GGTGACCA,-0.29 E-score
24,ACACGCCA,-0.0741 E-score
25,CCGAGCGG,-0.285 E-score

row,Sequence,binding signal
1,ACAAGATG,0.0595 E-score
2,AAGAAAGT,0.196 E-score
3,CAAAGGGA,-0.273 E-score
4,AAGCGGCG,-0.233 E-score
5,ATGTCGTG,0.0678 E-score
6,GCTGATGA,0.015 E-score
7,AGGCCCCA,-0.319 E-score
8,CGCATCGC,-0.115 E-score
9,CCGGTATA,-0.0189 E-score
10,ATCAGACA,0.0832 E-score
11,CTCAATTA,0.136 E-score
12,CATGAGGG,-0.336 E-score
13,GCAAAACA,-0.0687 E-score
14,ACGTTGTC,0.0359 E-score
15,CTGAAAAA,-0.101 E-score
16,GGAAACCA,0.021 E-score
17,TAACGCGA,0.0215 E-score
18,ATGCAATG,0.139 E-score
19,TGAGGTAA,0.232 E-score
20,GAGGGCCA,-0.397 E-score
21,AAAAATCC,-0.00162 E-score
22,CATGCGAC,-0.15 E-score
23,CCCCCTCC,-0.375 E-score
24,AGCACTTC,-0.211 E-score
25,CTGCGGGA,-0.343 E-score

row,Sequence,binding signal
1,AAAGCACT,-0.195 E-score
2,TGAGCACA,-0.0185 E-score
3,GGAGGTTA,-0.182 E-score
4,CATCCTGG,-0.0994 E-score
5,AAGAATGT,0.196 E-score
6,AGAGGGCT,-0.199 E-score
7,CAAATGCG,0.157 E-score
8,GTTGCATA,-0.0386 E-score
9,AGGTCCTG,-0.11 E-score
10,ACCCATAA,0.192 E-score
11,AAATCGAA,0.134 E-score
12,AGGTTGCC,-0.167 E-score
13,AACCACGT,-0.0233 E-score
14,CTGGCTTC,-0.141 E-score
15,ACAAGGCA,-0.0211 E-score
16,CATGCATC,-0.0197 E-score
17,ACCCTTAC,-0.226 E-score
18,GCAGCAAA,-0.101 E-score
19,ATATAATG,0.303 E-score
20,ACTATTCC,0.171 E-score
21,ACTAAAAC,0.303 E-score
22,ACCTATCA,0.232 E-score
